Consider five molecules from PMC11993684, “Fibromodulin selectively accelerates myofibroblast apoptosis in cutaneous wounds by enhancing interleukin 1β signaling” (Nature Communications, 2025).

The chains behind the UniProt entries cited, without tags or fusion partners. Where a name states a change or a piece, a line headed by the entry shows the natural chain unless it says otherwise. Residues count along the entry.
UniProt Q9NPH3: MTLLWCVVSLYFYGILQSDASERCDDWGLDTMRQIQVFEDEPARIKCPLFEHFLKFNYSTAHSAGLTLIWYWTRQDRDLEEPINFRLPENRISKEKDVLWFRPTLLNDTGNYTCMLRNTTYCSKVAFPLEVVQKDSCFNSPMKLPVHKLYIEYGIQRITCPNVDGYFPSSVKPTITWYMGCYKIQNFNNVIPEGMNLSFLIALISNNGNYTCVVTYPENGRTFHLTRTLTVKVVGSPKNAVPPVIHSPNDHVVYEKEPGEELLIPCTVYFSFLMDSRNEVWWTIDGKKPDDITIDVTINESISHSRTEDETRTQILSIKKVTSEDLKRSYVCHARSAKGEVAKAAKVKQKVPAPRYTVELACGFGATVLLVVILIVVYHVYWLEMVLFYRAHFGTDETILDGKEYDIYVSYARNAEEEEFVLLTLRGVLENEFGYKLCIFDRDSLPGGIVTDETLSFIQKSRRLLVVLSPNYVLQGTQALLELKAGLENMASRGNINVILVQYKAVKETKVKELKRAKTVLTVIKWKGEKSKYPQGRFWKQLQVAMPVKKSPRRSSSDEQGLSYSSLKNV
UniProt P01584, residues 117-269: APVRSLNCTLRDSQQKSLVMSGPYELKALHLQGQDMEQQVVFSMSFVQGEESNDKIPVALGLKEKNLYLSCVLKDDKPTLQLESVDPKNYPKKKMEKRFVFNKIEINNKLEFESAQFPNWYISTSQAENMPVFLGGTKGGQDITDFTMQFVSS

Assay [1] has as its target T1, recombinant human fibromodulin (FMOD) with C-terminal His-tag (human) (UniProt Q06828).
T1 sequence: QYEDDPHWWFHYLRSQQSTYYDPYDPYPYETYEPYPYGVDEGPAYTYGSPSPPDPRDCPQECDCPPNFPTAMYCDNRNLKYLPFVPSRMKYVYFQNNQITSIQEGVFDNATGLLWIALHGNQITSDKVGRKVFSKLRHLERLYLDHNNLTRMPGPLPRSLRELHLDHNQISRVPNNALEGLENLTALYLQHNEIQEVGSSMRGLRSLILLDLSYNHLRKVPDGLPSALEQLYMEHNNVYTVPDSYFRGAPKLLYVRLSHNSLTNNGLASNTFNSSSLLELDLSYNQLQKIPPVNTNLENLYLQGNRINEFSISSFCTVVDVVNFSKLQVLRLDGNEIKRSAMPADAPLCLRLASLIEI
Nature of the assay: pull-down; Pierce His Protein Interaction Pull-Down Kit; His-tagged FMOD as bait incubated in vitro with 200 μg whole membrane protein extracted from BJ-myofibroblasts (Mem-PER Plus kit); eluate by SDS-PAGE and Western blotting; only the target purified. On the technique in general: A western blot detects proteins with antibodies after separation by electrophoresis.

In assay [2] the target is endogenous IL1R1 of BJ-myofibroblasts (human (endogenous in BJ-myofibroblasts)) (UniProt P14778). Nature of the assay: proximity ligation; Duolink flowPLA Detection Kit - Green, BJ-myofibroblasts detached with Accutase 24 h after treatment with FMOD and/or IL1β; endogenous partners; read by flow cytometry (percentage of PLA-HIGH cells). On the technique in general: A flow cytometer gives signals particle by particle.

For assay [3] the target is unchanged. Nature of the assay: proximity ligation; Duolink in situ PLA on attached, serum-starved BJ-myofibroblasts fixed with acetone 1-72 h after treatment with FMOD and/or IL1β; endogenous partners; confocal microscopy, PLA signals per cell.
Assay [4] has as its target T1, recombinant human fibromodulin (FMOD) with C-terminal His-tag (human). Nature of the assay: pull-down; Pierce His Protein Interaction Pull-Down Kit; 150 μg His-tagged FMOD immobilised as bait; His-tag-free 100 μg IL1β, 100 μg IL1R1, 100 μg IL1RAP, or the complex formed beforehand (100 μg IL1β, 50 μg IL1R1, 50 μg IL1RAP, 4 °C overnight) as prey; eluate by SDS-PAGE and Western blotting; both purified.

These are yes or no findings as the source states them, for the method shown. For some of these results: In cells and extracts the contact can be indirect. Some entries that bind do so weakly or less than the wild type. For some of these results: Tags and fused reporters may be left off the sequences shown.

Take “endogenous IL1R1 of BJ-myofibroblasts (from UniProt P14778 18-569) (receptor)”: the binding result in assay [1] is “binds”.
In the case of “endogenous IL1RAP of BJ-myofibroblasts (from UniProt Q9NPH3 21-570) (receptor)”, the binding entry in assay [2], in assay [3] and in assay [1] was “binds” in each case.
Consider “recombinant IL1RAP (R&D Systems 676-CP-100/CF) (from UniProt Q9NPH3 21-367) (receptor)”, for which the binding entry in assay [4] is on record as “binds”.
Consider “recombinant human IL1β (R&D Systems 201-LB-010/CF) (from UniProt P01584 117-269) (ligand)”, for which the binding entry in assay [4] is “no binding (tested: 100 μg)”.

B1: recombinant IL1R1 (R&D Systems 269-1R-100/CF) (receptor, human, UniProt P14778 18-336, looked up)
chain: LEADKCKEREEKIILVSSANEIDVRPCPLNPNEHKGTITWYKDDSKTPVSTEQASRIHQHKEKLWFVPAKVEDSGHYYCVVRNSSYCLRIKISAKFVENEPNLCYNAQAIFKQKLPVAGDGGLVCPYMEFFKNENNELPKLQWYKDCKPLLLDNIHFSGVKDRLIVMNVAEKHRGNYTCHASYTYLGKQYPITRVIEFITLEENKPTRPVIVSPANETMEVDLGSQIQLICNVTGQLSDIAYWKWNGSVIDEDDPVLGEDYYSVENPANKRRSTLITVLNISEIESRFYKHPFTCFAKNTHGIDAAYIQLIYPVTNFQK
notes: interleukin 1 receptor type 1, recombinant, His-tag-free, 55 kDa on SDS-PAGE, carrier-free; also called interleukin 1 receptor type 1; source: bought: R&D Systems (carrier-free)
Consider B1, for which the binding result in assay [4] was “binds”.
